The whole screen tested about 310,000 compounds, of which about 2,200 (0.71%) showed an effect of 50% or more. The effect is printed as a negative number. This is one part of the list.
Each compound was assayed against human ether-à-go-go-related gene (hERG) potassium channel (human, UniProt Q12809) (assay: primary screen, population patch clamp on CHO cells stably expressing hERG).
human ether-à-go-go-related gene (hERG) potassium channel, sequence (Q12809 whole entry, looked up): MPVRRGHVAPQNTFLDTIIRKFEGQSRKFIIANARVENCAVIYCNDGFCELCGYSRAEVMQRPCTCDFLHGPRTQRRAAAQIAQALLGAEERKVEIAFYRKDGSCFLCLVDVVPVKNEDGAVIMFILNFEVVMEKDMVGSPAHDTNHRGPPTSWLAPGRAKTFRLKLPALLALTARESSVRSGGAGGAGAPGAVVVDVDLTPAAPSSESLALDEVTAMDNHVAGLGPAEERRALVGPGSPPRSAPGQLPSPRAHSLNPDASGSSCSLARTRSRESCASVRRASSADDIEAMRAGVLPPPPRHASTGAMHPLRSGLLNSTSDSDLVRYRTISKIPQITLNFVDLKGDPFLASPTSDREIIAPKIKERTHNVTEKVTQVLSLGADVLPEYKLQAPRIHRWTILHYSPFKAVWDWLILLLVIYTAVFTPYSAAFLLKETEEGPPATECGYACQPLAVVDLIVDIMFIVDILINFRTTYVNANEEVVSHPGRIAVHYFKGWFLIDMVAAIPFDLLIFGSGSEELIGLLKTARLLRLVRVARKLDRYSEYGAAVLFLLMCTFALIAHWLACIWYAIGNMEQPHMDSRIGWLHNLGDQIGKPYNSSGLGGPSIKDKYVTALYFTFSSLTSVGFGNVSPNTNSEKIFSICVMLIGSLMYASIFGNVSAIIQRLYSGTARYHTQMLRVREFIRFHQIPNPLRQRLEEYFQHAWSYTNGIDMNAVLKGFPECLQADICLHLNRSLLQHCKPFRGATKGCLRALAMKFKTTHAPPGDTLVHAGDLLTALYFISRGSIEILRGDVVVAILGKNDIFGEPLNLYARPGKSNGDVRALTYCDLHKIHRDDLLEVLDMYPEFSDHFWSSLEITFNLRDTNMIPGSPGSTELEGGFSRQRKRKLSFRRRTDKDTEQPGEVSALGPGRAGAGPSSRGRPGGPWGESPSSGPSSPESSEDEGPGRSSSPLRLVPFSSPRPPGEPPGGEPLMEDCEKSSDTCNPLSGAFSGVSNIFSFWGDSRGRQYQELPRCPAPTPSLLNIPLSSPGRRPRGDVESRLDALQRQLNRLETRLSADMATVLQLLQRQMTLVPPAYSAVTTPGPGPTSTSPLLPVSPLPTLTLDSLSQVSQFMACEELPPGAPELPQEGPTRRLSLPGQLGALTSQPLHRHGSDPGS

**Q.** With `Cc1ccc(N2C(=O)c3ccc(C(=O)N4CCN(c5ccc(C)c(C)c5)CC4)cc3C2=O)cc1` as the compound, how does the “hERG current change (%, negative = inhibition) at 1uM” value read?
**A.** 3.93%

**Q.** Which “hERG current change (%, negative = inhibition) at 1uM” value does the source give for `CCC(=O)NNc1nc2c(C)cccc2s1` here?
**A.** 14.8%

**Q.** `Cc1cc(=O)oc2c(C)c(OC(C)C(=O)Nc3ccc(N4CCC(C)CC4)cc3)ccc12` (stereo not shown) was tested. Which “hERG current change (%, negative = inhibition) at 1uM” value did it give?
**A.** 27.2%

**Q.** `C=CCn1c(O)c2ccc(C(=O)N=NC(=O)COc3ccc(OC)cc3)cc2c1O` was tested. Which “hERG current change (%, negative = inhibition) at 1uM” value did it give?
**A.** -5.49%

**Q.** Which “hERG current change (%, negative = inhibition) at 1uM” value does the source give for `CCC(=O)Nc1ccc(Cl)c(NC(=S)NC(C)=O)c1` here?
**A.** 9.48%

**Q.** `CCOC(=O)C1CCN(C(=O)Cc2ccc(C)cc2)CC1` was tested. Which “hERG current change (%, negative = inhibition) at 1uM” value did it give?
**A.** 2.81%

**Q.** `O=C(O)c1ccc2c(c1)C(=O)N(CCC1=CCCCC1)C2=O` was tested. Which “hERG current change (%, negative = inhibition) at 1uM” value did it give?
**A.** 15.5%

**Q.** With `O=C(CCCn1ncn2c(cc3occc32)c1=O)NCc1ccccc1F` as the compound, how does the “hERG current change (%, negative = inhibition) at 1uM” value read?
**A.** 12.8%

**Q.** With `O=C(NCC1CCCCC1)c1ccc(F)cc1Cl` as the compound, how does the “hERG current change (%, negative = inhibition) at 1uM” value read?
**A.** 1.83%

**Q.** For `Cc1ccc(NC(=O)CS(=O)CC(=O)N(CC(=O)NC2CCCC2)c2cc(C)ccc2C)cc1` (stereo not shown), which “hERG current change (%, negative = inhibition) at 1uM” value is on record?
**A.** -4.49%

**Q.** `COc1ccc(C(=O)Nc2ccc(SC(F)F)cc2)cc1` was tested. Which “hERG current change (%, negative = inhibition) at 1uM” value did it give?
**A.** 5.09%

**Q.** For `CCN(C(=O)COc1ncnc2ccc(Br)cc12)C1CCS(=O)(=O)C1` (stereo not shown), which “hERG current change (%, negative = inhibition) at 1uM” value is on record?
**A.** 9.82%

**Q.** Which “hERG current change (%, negative = inhibition) at 1uM” value does the source give for `O=C(O)c1cn(-c2ccc(N3CCCC3)c(F)c2)c2c(F)c(F)c(F)cc2c1=O` here?
**A.** 6.4%

**Q.** Which “hERG current change (%, negative = inhibition) at 1uM” value does the source give for `COC(=O)C1=C(c2ccc(S(C)(=O)=O)cc2)C[C@@H]2CC[C@H]1N2C(=O)NC1CCCCC1` here?
**A.** -0.273%

**Q.** With `CCC(COC(=O)NC)NC(=O)Oc1ccccc1` (stereo not shown) as the compound, how does the “hERG current change (%, negative = inhibition) at 1uM” value read?
**A.** 1.53%

**Q.** For `O=C(NCCCn1cccn1)C1CCC(=O)N(Cc2cccc(C(F)(F)F)c2)C1` (stereo not shown), which “hERG current change (%, negative = inhibition) at 1uM” value is on record?
**A.** 7.02%

**Q.** For `Cc1oc(-c2ccccc2Cl)nc1CS(=O)(=O)CC(=O)NCCc1ccccc1`, which “hERG current change (%, negative = inhibition) at 1uM” value is on record?
**A.** 9.38%

**Q.** With `NS(=O)(=O)c1ccc(NC(=O)COC(=O)c2cc3ccccc3oc2=O)cc1` as the compound, how does the “hERG current change (%, negative = inhibition) at 1uM” value read?
**A.** 1.43%

**Q.** With `CSc1cccc(NC(=O)C(C)Sc2ccc(C)cc2)c1` (stereo not shown) as the compound, how does the “hERG current change (%, negative = inhibition) at 1uM” value read?
**A.** 2.6%

**Q.** `COc1ccccc1C(=O)NC(CCSC)C(=O)N1CCC(Cc2ccccc2)CC1` (stereo not shown) was tested. Which “hERG current change (%, negative = inhibition) at 1uM” value did it give?
**A.** -0.203%

**Q.** For `CCCn1c(N/N=C\C=C\c2ccccc2)nc2c1c(=O)[nH]c(=O)n2C`, which “hERG current change (%, negative = inhibition) at 1uM” value is on record?
**A.** -3.7%

**Q.** `Cc1ccc(CNC(=O)c2ccccc2N)cc1` was tested. Which “hERG current change (%, negative = inhibition) at 1uM” value did it give?
**A.** 7.07%

**Q.** Which “hERG current change (%, negative = inhibition) at 1uM” value does the source give for `COCCNc1nc(-c2cc(C(=O)Nc3ccccc3)on2)cc(C(C)C)n1` here?
**A.** 13.5%

**Q.** How did the “hERG current change (%, negative = inhibition) at 1uM” value turn out when `O=C(C1CCN(S(=O)(=O)c2cccc3cccnc23)CC1)N1CCN(C2CCCCC2)CC1` was run?
**A.** 7.43%

**Q.** `Cc1[nH]c2ccccc2c1C(=O)CN1CCN(C/C=C/c2ccccc2)CC1` was tested. Which “hERG current change (%, negative = inhibition) at 1uM” value did it give?
**A.** -50.4%

**Q.** `Cc1ccc(C(=O)NCCCN2CCOCC2)cc1N1CCCC1=O` was tested. Which “hERG current change (%, negative = inhibition) at 1uM” value did it give?
**A.** 6.01%

**Q.** How did the “hERG current change (%, negative = inhibition) at 1uM” value turn out when `CCOc1ccc2[nH]c(C)c(CN3CCN(C)CC3)c(=O)c2c1` was run?
**A.** -13.4%

**Q.** With `COCCn1c(=S)[nH]c2cc(C(=O)N3CCN(c4ccccc4OC)CC3)ccc2c1=O` as the compound, how does the “hERG current change (%, negative = inhibition) at 1uM” value read?
**A.** 6.84%

**Q.** `Cc1ccc(NC(=O)c2cc(C)no2)cc1` was tested. Which “hERG current change (%, negative = inhibition) at 1uM” value did it give?
**A.** 13.3%

**Q.** `CC(C)[C@H](NC(=O)Nc1ccc(Oc2ccccc2)cc1)C(=O)O` was tested. Which “hERG current change (%, negative = inhibition) at 1uM” value did it give?
**A.** 11.2%

**Q.** How did the “hERG current change (%, negative = inhibition) at 1uM” value turn out when `COc1cc(/C=C(\C#N)c2nnc(N3CCOCC3)n2-c2ccccc2)ccc1O` was run?
**A.** 18.2%

**Q.** `Cc1ccc(C)c(OCC(=O)Nc2ccc(N3CCOCC3)cc2N2CCOCC2)c1` was tested. Which “hERG current change (%, negative = inhibition) at 1uM” value did it give?
**A.** 4.89%

**Q.** With `CCOC(=O)N1CCC(=NNc2nc3ccccc3s2)CC1` as the compound, how does the “hERG current change (%, negative = inhibition) at 1uM” value read?
**A.** 4.29%

**Q.** With `O=S(=O)(Nc1ccc2c(c1)OCCO2)c1cccc2nsnc12` as the compound, how does the “hERG current change (%, negative = inhibition) at 1uM” value read?
**A.** 5.63%

**Q.** With `O=C(COc1ccccc1)OCC(=O)c1ccc(S(=O)(=O)N2CCCCC2)cc1` as the compound, how does the “hERG current change (%, negative = inhibition) at 1uM” value read?
**A.** 15.7%

**Q.** How did the “hERG current change (%, negative = inhibition) at 1uM” value turn out when `CCOC(=O)CSc1ncccn1` was run?
**A.** 6.09%

**Q.** With `Cc1cc(C)c(C)c(S(=O)(=O)NCc2ccc(C(=O)NCC3CCCO3)cc2)c1C` (stereo not shown) as the compound, how does the “hERG current change (%, negative = inhibition) at 1uM” value read?
**A.** 10.4%

**Q.** Which “hERG current change (%, negative = inhibition) at 1uM” value does the source give for `Cc1csc(NC(=O)Cc2nn(C)c(=O)c3ccccc23)n1` here?
**A.** 9.7%

**Q.** `CC1CC(C)CN(S(=O)(=O)c2ccc(NN)nc2)C1` (stereo not shown) was tested. Which “hERG current change (%, negative = inhibition) at 1uM” value did it give?
**A.** 13.3%

**Q.** `CC(C)S(=O)(=O)c1csc(C(=O)NNC(=O)Nc2ccccc2)c1Cl` was tested. Which “hERG current change (%, negative = inhibition) at 1uM” value did it give?
**A.** 2.93%

**Q.** How did the “hERG current change (%, negative = inhibition) at 1uM” value turn out when `CCCNc1c(NS(=O)(=O)c2c(F)c(F)c(F)c(F)c2F)c(=O)oc2ccccc12` was run?
**A.** -1.76%

**Q.** `CN(CC(=O)O/N=C(\N)c1cccc([N+](=O)[O-])c1)S(=O)(=O)c1ccccc1` was tested. Which “hERG current change (%, negative = inhibition) at 1uM” value did it give?
**A.** 7.41%

**Q.** How did the “hERG current change (%, negative = inhibition) at 1uM” value turn out when `NC(=O)CC(NC(=O)Cc1ccc(Br)cc1)c1ccc(NC2CCC2)c([N+](=O)[O-])c1` (stereo not shown) was run?
**A.** -2.11%

**Q.** With `COc1ccccc1/C=C/C(=O)OCC(=O)Nc1c(F)cccc1F` as the compound, how does the “hERG current change (%, negative = inhibition) at 1uM” value read?
**A.** 20.1%

**Q.** How did the “hERG current change (%, negative = inhibition) at 1uM” value turn out when `CC(=O)Nc1cccc(NC(=O)CSc2nnc3ccc(-c4ccccn4)nn23)c1` was run?
**A.** 17.9%

**Q.** For `COc1ccc([C@@H]2[C@@H]3C(=O)N(C(C)(C)C)C(=O)[C@@H]3[C@]3(Cc4ccc(Cl)cc4)C(=O)N(c4ccc(Br)cc4)C(=O)N23)cc1`, which “hERG current change (%, negative = inhibition) at 1uM” value is on record?
**A.** 1.72%

**Q.** `Cc1cc(C)c(NC(=O)CS(=O)CC(=O)NCCCc2ccccc2)c(C)c1` (stereo not shown) was tested. Which “hERG current change (%, negative = inhibition) at 1uM” value did it give?
**A.** 5.98%

**Q.** `COc1ccc(C(=O)Nc2nnc(S(=O)(=O)N(C)Cc3ccc(F)cc3)s2)cc1OC` was tested. Which “hERG current change (%, negative = inhibition) at 1uM” value did it give?
**A.** 11.1%

**Q.** With `O=C(CCN1C(=O)C2C3C=CC(C3)C2C1=O)Nc1ccc2c(c1)OCO2` (stereo not shown) as the compound, how does the “hERG current change (%, negative = inhibition) at 1uM” value read?
**A.** 10.4%

**Q.** Which “hERG current change (%, negative = inhibition) at 1uM” value does the source give for `Cc1ccccc1C(=O)Nc1ccc(Br)cn1` here?
**A.** 17.3%

**Q.** For `Cc1cc(C)cc(OCC(=O)OCC(=O)Nc2ccc(Cl)cn2)c1`, which “hERG current change (%, negative = inhibition) at 1uM” value is on record?
**A.** 6.82%

**Q.** How did the “hERG current change (%, negative = inhibition) at 1uM” value turn out when `CC(C)(C)c1ccc(NC(=O)c2ccsc2)cc1` was run?
**A.** 12.6%

**Q.** Which “hERG current change (%, negative = inhibition) at 1uM” value does the source give for `COc1ccnc(CSC(N)=Nc2ccc(F)cc2)c1.Cl` here?
**A.** -4.25%

**Q.** How did the “hERG current change (%, negative = inhibition) at 1uM” value turn out when `CCn1ncc(NC(=S)NCCc2ccccc2)c1C(N)=O` was run?
**A.** 2.4%

**Q.** How did the “hERG current change (%, negative = inhibition) at 1uM” value turn out when `COc1ccc(OCC(=O)N2CCN(C/C=C/c3ccccc3)CC2)cc1` was run?
**A.** -33.6%

Reference: paper PMC4336329 (PLoS ONE, 2015)
